# Data from paper PMC12136788.
# The list shows a part of the results.
# T1: UNK ZnF1-6 (called full-length) (human, UniProt Q9C0B0 30-357)
# T1 sequence: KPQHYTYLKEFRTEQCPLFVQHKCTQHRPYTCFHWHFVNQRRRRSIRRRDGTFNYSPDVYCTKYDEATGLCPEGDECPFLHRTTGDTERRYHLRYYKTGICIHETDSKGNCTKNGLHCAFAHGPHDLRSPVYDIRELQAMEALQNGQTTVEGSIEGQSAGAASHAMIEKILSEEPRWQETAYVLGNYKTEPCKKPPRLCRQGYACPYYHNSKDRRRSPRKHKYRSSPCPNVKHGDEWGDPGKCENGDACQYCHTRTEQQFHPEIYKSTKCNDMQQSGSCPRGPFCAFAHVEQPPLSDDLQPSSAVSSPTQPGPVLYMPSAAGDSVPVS
# B1: chr19:42935403:42935769:-|CDS|ENSG00000221878|control|control|control (ssRNA)
# RNA: GGGAGUUCUACAGUCCGACGAUCCUACAUCUGGUACAAAGGACAAAUCAGGGACCUCUACCAUUAUGUUACAUCAUAUAUAGUAGACGGUCAAAUAAUUAAAUAUGGGCCUGCAUACAGUGGACGAGAAACAGUAUAUUCCAACAACAGAGGAUUGAGCAUCA
# B2: chr21:34788506:34788607:-|3pUTR|ENSG00000159216|msi1|FALSE|unique (ssRNA)
# RNA: GGGAGUUCUACAGUCCGACGAUCUUGUUAAUGCCUAUAACUUUUUUUCAAUUUUUUUGUGUGUGUUUCUAAGGACUUUUUCUUAGGUUUGCUAAAUACUGUAGGGAAAAAAAUGCUUCUUUCUACUUUGUUUAUUUUAGACUUCAACAGAGGAUUGAGCAUCA
# B3: chr2:101892430:101892531:+|3pUTR|ENSG00000071054|msi1|FALSE|unique (ssRNA)
# RNA: GGGAGUUCUACAGUCCGACGAUCCCAUUAGAGGUUGAUGGGGCAACUGCAGCCCAUGACACAAGAUCUCAUUGUUCUCGAUGUAGAGGGGUUGGUAGCAGACAGGUGGUUACAUUAGAAUAGUCACACAAACUGUUCAGUGUUCAACAGAGGAUUGAGCAUCA
# B4: chr1:204551843:204551944:+|3pUTR|ENSG00000198625|unk|total|mutant (ssRNA)
# RNA: GGGAGUUCUACAGUCCGACGAUCAGUGUUCCUGGAAUCUCUAUGCAAGUUUUAUACAGAACAUACUUUUGGAAUCCUUGCCCCCGACAGGGGUGUCCAAUCUUUUGGCUUCCCUGGUCCACAAUGGAAGAAGAAUUGUCUUGGCAACAGAGGAUUGAGCAUCA
# B5: chr4:112276399:112276500:-|3pUTR|ENSG00000145365|unk|total|mutant (ssRNA)
# RNA: GGGAGUUCUACAGUCCGACGAUCUUAUUCCCUGUGAUGCCCAGAGUAAUGGCCCAUCCAAAGAUGUCCAGAUGUCCAUGUGCCCGUCUCCAGAACUUGUAACUGUGUUGUUAUGUGGCAAAGGGGAAUGAAGGCUGCAGAUGGCAACAGAGGAUUGAGCAUCA
# B6: chr5:134606522:134606623:-|3pUTR|ENSG00000152700|msi1_unk|total|mutant (ssRNA)
# RNA: GGGAGUUCUACAGUCCGACGAUCAACUAUAAACCAUAUUUAAAAGCUCAUCAUGUUAAAUUUUUUAUGUACUUUUCUGGAACCCGUUUUUAAAUUUCCGAUUAUAUGUCCACCUAUCUUAAGUGUACAGUUAAUAAUCCGCUUCAACAGAGGAUUGAGCAUCA
# B7: chr1:13223334:13223905:-|CDS|ENSG00000279804|control|control|control (ssRNA)
# RNA: GGGAGUUCUACAGUCCGACGAUCUCUUGAGCCCCUCCGAGCUCUGCUAGAGAAAGUUGCUGCCACUCUUCAGACCCUCUUCUUAGUGGACUGUGGGAUUGGGUACUCCAAACUCAGGGUCAUCCUGCCUGCCCUGAGCCGCUGCAACAGAGGAUUGAGCAUCA
# B8: chr1:178849534:178851128:-|three_prime_utr|ENSG00000116194|control|control|control (ssRNA)
# RNA: GGGAGUUCUACAGUCCGACGAUCCUACACAGAAAGUUUUUAAAAUGAAUUUUACCGUAACUAUAAAAGGGAACCUAUAAAUGUAGUUUCAUCUGUCGUCAAUUACUGCAGAAAAUUAUGUGUAUCCACAACCUAGUUAUUUUACAACAGAGGAUUGAGCAUCA
# B9: chr8:6811200:6812339:-|CDS|ENSG00000275591|control|control|control (ssRNA)
# RNA: GGGAGUUCUACAGUCCGACGAUCAUGUAGAGGCUUCUGCCCCAGUGCAGGCUUCCCUGGAAGAACCCUCAGUAUCUCAGAGCUAGAGGAGCCGCUGGAGCCCAAAAGGGAGCUAAGUCACCAUGCAGCUGUUGGUGUGUGGGUCAACAGAGGAUUGAGCAUCA
# B10: chr6:4954605:4954706:+|3pUTR|ENSG00000153046|msi1|FALSE|bound_elsewhere (ssRNA)
# RNA: GGGAGUUCUACAGUCCGACGAUCGGAUAAAUACUUCUGAUGAAAAAUCCGCUGAGGAGCAUACCCCAAACCAGACAUAUGCUUAGGAUUCAUGCUGAGAUAUCAAUUGGUUUCCCCUUCUUUUUAAAAUACGUCCAGUUCUUACAACAGAGGAUUGAGCAUCA
# B11: chr8:116643852:116643953:-|3pUTR|ENSG00000147677|unk|total|mutant (ssRNA)
# RNA: GGGAGUUCUACAGUCCGACGAUCUGUUGUGAAUGAGGAAUCCGGAAUCCGGAGAAUGGCCGUACAUUGGGAAAAACAUAUUUCCGUAAUUUUUAUAUUUUAAAGAUAAUCACAGAUUUUGCUGUUUGUGCAUCACCAAAAUCACAACAGAGGAUUGAGCAUCA
# B12: chr16:30193532:30193793:-|CDS|ENSG00000169627|control|control|control (ssRNA)
# RNA: GGGAGUUCUACAGUCCGACGAUCGCCUUAGUAAGGGCGGAAGUGAGUUUUCCAGCGGAAGUGGCUCCUGUAAGGCAGCAAGGUAGCGUGGCCGGCGCCCGAGCUGGGGUUGUGUCCCUGCUGGGCUGCCGUUCCAGCUGGACUCAACAGAGGAUUGAGCAUCA
# B13: ENSG00000180263:stop:overlap|stop_codon|ENSG00000180263|stop_codon|NA|stop_codon (ssRNA)
# RNA: GGGAGUUCUACAGUCCGACGAUCCAGAGGAUGCUCAUUCGGCUCAGAAGUGGAUAGAAGCAUUUCAGGAAGGCACAAUAUUGUAGCAGUAUUGGUUUCAUCUCUUCUGUGAUUCCAAAGAGGUGGAAUUUCAUCAGAAUGGAGCAACAGAGGAUUGAGCAUCA
# B14: chr6:37331633:37331734:+|3pUTR|ENSG00000065491|unk|FALSE|unique (ssRNA)
# RNA: GGGAGUUCUACAGUCCGACGAUCCCGUUCCCCUUCUGCCCCAGUCUGAGCCAGUGAGGGGUAGCUUUUUAAAACCAUUAUUCUAGAUGGAGGAGGCACUGAUGCUUGUAACUCUGGAAAGAGGCCUACACCCAAGGGCUAGGACAACAGAGGAUUGAGCAUCA
# Target: T1, UNK ZnF1-6 (called full-length)
# Assay: nsRBNS (natural sequence RNA bind-n-seq); RBNS binding buffer (assumed for nsRBNS): 25 mM Tris pH 7.5, 150 mM KCl, 3 mM MgCl2, 0.01% Triton X-100, 500 ug/ml BSA, 20 U/ml SUPERase-In, 4 C; UNK is unkempt and MSI1 is Musashi-1; names of the RNAs are library labels; protein concentration not given here; high values mean tight binding
row,Binder,binding signal [enrichment R]
1,B1,0.629
2,B2,2.15
3,B3,0.771
4,B4,0.328
5,B5,0.551
6,B6,2.06
7,B7,1
8,B8,2.6
9,B9,0.868
10,B10,0.311
11,B11,0.568
12,B12,0.892
13,B13,0.946
14,B14,2.05
